In the supplement of paper PMC12217912:
The other results are listed elsewhere or left out. The full chains were built here from the parent and the listed change. Values near 0.05 are background.

B1: TEV protease; numbered along this chain (parent)
chain: MGESLFKGPRDYNPISSSICHLTNESDGHTTSLYGIGFGPFIITNKHLFRRNNGTLVVQSLHGVFKVKDTTTLQQHLVDGRDMIIIRMPKDFPPFPQKLKFREPQREERICLVTTNFQTKSMSSMVSDTSCTFPSGDGIFWKHWIQTKDGQCGSPLVSTRDGFIVGIHSASNFTNTNNYFTSVPKNFMELLTNQEAQQWVSGWRLNADSVLWGGHKVFMVKPEEPFQPVKEATQL

Variants of: B1
Test: raw area under fraction-flipped curve 0-4 h after induction (AUC4h, not background-subtracted), DNA-recorder readout of cleavage of the substrate (dimensionless); higher = more cleavage of the substrate by the protease variant
Settings: temperature: 34 °C; time window: 0-4 h after rhamnose induction
Method: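 In vivo DNA recorder in E. coli TOP10(DE3) ΔrhaA at 34 °C. Each TEVp single-site mutant (parent TEVp 0) is paired with a single-site variant of the 7-mer TEVs (canonical ENLYFQ|S). The substrate sits between flexible linkers in a Bxb1-sfGFP-TEVs-SsrA fusion, so cleavage stabilises Bxb1 and speeds flipping of a recombination array, read by NGS. The value is the raw area under the fraction-flipped curve over 0-4 h after rhamnose induction (AUC4h), with ≥20 reads per time point. It is not background-subtracted; inactive controls average about 0.047.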
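Note: Bxb1 expression induced with 0.2% (w/v) L-rhamnose at OD600 near 0.5, cultures sampled hourly, flipped fraction per protease–substrate barcode pair counted by paired-end Illumina sequencing.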

Variant | area with substrate ENLYFAS | area with substrate ENLYFCS | area with substrate ENLYFDS | area with substrate ENLYFES | area with substrate ENLYFFS | area with substrate ENLYFHS | area with substrate ENLYFIS | area with substrate ENLYFKS | area with substrate ENLYFLS | area with substrate ENLYFMS | area with substrate ENLYFNS | area with substrate ENLYFPS | area with substrate ENLYFRS | area with substrate ENLYFTS | area with substrate ENLYFVS | area with substrate ENLYFWS | area with substrate ENLYFSS | area with substrate ENLYFYS | area with substrate ENLYFGS
W203G | 0.0471 | 0.0523 | 0.0667 | 0.0649 | 0.0682 | 0.061 | 0.0494 | 0.0551 | 0.0533 | 0.0657 | 0.0549 | 0.0737 | 0.0459 | 0.0486 | 0.0491 | 0.0413 |  |  | 
L156E | 0.0537 | 0.0573 | 0.0504 | 0.0445 | 0.0621 |  | 0.0503 | 0.0429 |  | 0.0437 | 0.0522 | 0.0467 | 0.0532 | 0.0474 | 0.0535 | 0.0595 |  |  | 
S171L | 0.0583 | 0.0152 | 0.0788 | 0.0663 | 0.0722 |  | 0.0472 | 0.064 |  | 0.0658 | 0.0689 | 0.054 | 0.0555 | 0.0587 |  |  | 0.0607 |  | 
E195K | 0.0616 | 0.055 | 0.0573 | 0.0678 | 0.0671 | 0.0679 | 0.065 | 0.0538 | 0.0584 | 0.0672 | 0.0587 | 0.0656 | 0.067 | 0.063 | 0.0618 | 0.067 | 0.0477 | 0.0559 | 
L190Y | 0.0631 | 0.0762 |  |  | 0.069 | 0.0596 | 0.0574 |  | 0.0457 | 0.0552 |  | 0.0651 | 0.0499 | 0.0592 |  | 0.0493 |  |  | 0.0658
L190M | 0.0542 | 0.06 | 0.0563 | 0.11 | 0.0665 | 0.0499 | 0.0544 |  | 0.0664 | 0.0556 | 0.052 |  | 0.0523 | 0.0628 |  | 0.0729 | 0.0639 |  | 0.0579
P222F | 0.0595 | 0.0619 |  | 0.0626 | 0.0641 | 0.0623 | 0.0613 | 0.0491 | 0.0545 | 0.0647 | 0.0566 | 0.0509 | 0.066 | 0.0642 | 0.0566 | 0.0327 | 0.104 | 0.0602 | 0.0584
F226H | 0.0807 | 0.0609 | 0.0503 | 0.0672 | 0.0467 | 0.0546 | 0.0528 | 0.0666 | 0.0571 | 0.0696 | 0.0637 | 0.0681 | 0.0557 | 0.0619 | 0.0721 | 0.0477 | 0.0554 | 0.0623 | 0.0704
F226M | 0.0504 | 0.0495 | 0.0498 | 0.0704 | 0.0725 | 0.057 | 0.0591 | 0.0396 | 0.0565 | 0.0806 | 0.0542 | 0.0548 | 0.0559 | 0.0508 | 0.0579 | 0.0503 | 0.0596 | 0.062 | 
S201R | 0.0566 | 0.0719 |  | 0.0533 |  | 0.109 | 0.0631 | 0.0697 |  |  | 0.0265 | 0.0549 | 0.0625 | 0.0519 |  |  | 0.0876 | 0.0228 | 
K221F | 0.0577 | 0.0204 | 0.0527 | 0.0564 | 0.0671 |  | 0.0547 | 0.0599 | 0.0533 | 0.0604 | 0.0574 | 0.0557 | 0.0648 | 0.0578 |  | 0.0548 | 0.0441 | 0.0575 | 0.0458
T192M | 0.0588 |  | 0.0486 | 0.0586 | 0.0676 | 0.0603 | 0.0566 | 0.0781 | 0.0837 | 0.0818 | 0.0739 | 0.0541 | 0.0617 | 0.0501 | 0.0398 | 0.0509 | 0.0523 | 0.0437 | 0.0496
W199N | 0.0599 | 0.0674 | 0.0507 | 0.0545 | 0.0673 |  | 0.0579 | 0.0687 |  | 0.0551 |  | 0.0704 |  | 0.055 |  | 0.057 |  |  | 
W199E | 0.0493 | 0.0596 |  | 0.0677 | 0.0772 | 0.0541 | 0.0586 | 0.0859 |  | 0.0566 |  | 0.0642 | 0.0676 | 0.0718 | 0.0561 | 0.0525 | 0.0671 |  | 0.0646
V217C | 0.0417 | 0.0623 | 0.069 | 0.0761 | 0.0542 | 0.0633 | 0.0541 | 0.0736 | 0.0583 | 0.0635 | 0.0623 | 0.0568 | 0.0638 | 0.0479 | 0.0568 | 0.0685 |  |  | 
P155D | 0.043 | 0.0482 | 0.0449 | 0.0639 | 0.0537 |  | 0.0516 | 0.0534 | 0.0469 | 0.0473 | 0.0535 | 0.0387 | 0.0466 | 0.0417 | 0.0375 | 0.0476 | 0.0511 | 0.0532 | 0.0318
P155K | 0.0356 | 0.0362 | 0.0464 | 0.0493 |  | 0.0498 | 0.0534 | 0.0468 | 0.0549 | 0.0524 |  | 0.0466 | 0.0545 | 0.041 | 0.0127 | 0.0538 |  |  | 
V183H | 0.037 | 0.0591 | 0.049 | 0.0536 | 0.0578 | 0.0591 | 0.0544 | 0.0635 | 0.0589 | 0.0509 | 0.0551 | 0.0505 | 0.0468 | 0.0439 | 0.0556 | 0.0457 | 0.0191 | 0.0535 | 0.0503
E223I | 0.0677 |  |  |  | 0.066 | 0.0639 | 0.0652 | 0.0308 |  | 0.0602 |  | 0.0616 |  | 0.065 |  | 0.0687 |  | 0.0526 | 
E223K | 0.0521 | 0.0498 |  | 0.0598 | 0.0853 | 0.0608 | 0.0545 | 0.0629 |  | 0.083 | 0.0657 | 0.0504 | 0.0639 | 0.0503 |  | 0.0663 | 0.058 | 0.0567 | 0.0667
F180N | 0.0427 | 0.0616 | 0.0511 |  | 0.0588 | 0.0489 | 0.0487 | 0.0536 |  |  | 0.0528 | 0.0464 |  | 0.0592 |  | 0.0458 | 0.0411 |  | 
Q197D | 0.0583 | 0.0475 |  | 0.066 | 0.0723 | 0.0626 | 0.0504 |  |  | 0.0627 | 0.0567 | 0.0733 | 0.0505 |  | 0.0806 | 0.0769 | 0.0648 | 0.0611 | 
S209V | 0.032 |  | 0.102 | 0.0562 | 0.0967 |  | 0.0531 | 0.0608 |  | 0.0714 |  | 0.0624 | 0.0631 | 0.0759 | 0.068 | 0.0582 | 0.0708 | 0.059 | 
Q151M | 0.06 |  | 0.0624 | 0.09 | 0.0786 |  | 0.0631 | 0.0591 | 0.0502 | 0.0604 | 0.0633 |  |  |  | 0.0539 |  |  |  | 
